The source gives no read counts; variants with many changes may rest on few reads.
B1: LINE1-full (parent)
chain: UACGUAGGUGGUUUUCCCCUGAUAGUGCUAAGGGGGCCUGGAAGUUUGGACUGGGCAGAGCUCAACACAGCGUGGCAAAGUGGCUGUGGCUAGACUGCCUCUCUGGAUUCCUCGUCACUCAGCAGGGCAUCUCUGAGAGAAAUGCC

Variants of: B1
Assay: self-cleavage, relative activity (ratio to wild type); higher = more cleavage; in vitro, sequencing; the parent is a self-cleaving ribozyme

Variant | self-cleavage
U15C G36A A42G A64G A136G | 0.47
A24U G122A A136U | 1.44
U12G U52C G55A A77G G139A | 0.57
G10A A22G C71U U73C | 0.85
U1C U73C A78G | 0.48
U5A U9A C19A A142G | 0.71
U15C A31G U100C A138G | 0.3
C18U C51U A140U | 1.18
A50G U62C U81A | 0.08
G74A U87A U104C | 0.05
G7A U13G A59G | 0.09
G32A A124G A136U U143A | 1.56
U39A A64U G139A | 0.36
U9C U85C U96A | 0.13
U13C U109C A136G | 1.99
U9C C68U A94G | 0.12
G35A U39A U100C | 1.35
U112C A142C C145U | 1.04
U91A U100C A141U | 0.87
A107G U119C U143A | 0.7
U47C U73G U102A | 2.2

Variant | self-cleavage
A43G A59G A92U C103A | 0.08
U12G U81A U112C | 1.78
A43G U73C U104A U108A A141G | 0.71
U9A G34A C76A U81C A142G U143C | 1.29
A42G U132C A141G | 0
U39C U112A A117G | 1.08
A65G U96A U102A | 0.02
C95U U115C C131U U134G | 0.35
U15G U73C C113U A140G | 0.28
U12C C76U U112A | 2.54
U26C U47A U73C | 1.95
A65G U104A U119A A141G | 0
G8U U12G U46C C51U G80A A124U | 1.57
U29C A64U A78G U112A | 0.53
U52A G80C U100A A107G | 0
A6G A42G A43G G54C | 1.19
U13A C18U A65G | 0.13
U9A U12G A50G A124U | 1.04
A42C U108C A129U | 0
A24G U52G U62A A107G U119A | 0.46
U47C C99U U100A U119C | 1.9

Variant | self-cleavage
U26A A79G U143G | 0.62
U5C A6G U73C A140G | 0
A57U A67G A124G | 0.14
U12C U46C A77G | 0.63
A57U U96C U104C A124G | 0.18
U13C A65G U104C | 0
U13C A42G C90U | 0.17
U20C A31G A77U A124G | 0.62
A2U A31U A50U U62C | 0.12
A43G U62C A77U | 0.1
G36U A64G A65U U91C U115C U134A | 0
C3U U47A A107C A121G A140U | 0.84
U29C A78G A129U | 1.98
U13C U47C C51U A57G A136G | 1.53
U52A U81C U104A A107G | 1.36
U9A U47C U100C A124G | 1.84
U9C U13C U143G | 0.66
U9C A77G A94U A124G | 0.7
U13C A78G C90A U91C A142G | 0.12
A42G U45C U46C G48A U96C | 0
A64G G122U A142G | 0.16

Variant | self-cleavage
G34U A42G A92G | 0.07
U45C A69G A138G | 0
A31G A65G U96C | 0
A67U A69C U87C | 0
G7A C19U U104C G114A | 1.09
G34A G48A A136U | 1.02
U9A U26C G32U U73C G93A | 0.17
U45C U52C A59U U96A | 0.11
A64U A129G A140G | 0.5
U39A U46C C128U U132C A142G | 1.04
U15C U96A U130A | 0.07
U39C C71U U73C U109C | 0.72
U26C A77U U85A | 0.04
U15C C56A U119C | 0.25
U12C C71U C120U | 0.51
U5A A69G U112C | 0.84
A65U G89A U96A | 0.03
A2G U20A A140G U143C | 0.82
A43G U112C C113A | 0.42
U14C G35A A50G A79G U134C | 0.75
